Measured values taken from patent US11207320B2, “Compositions and methods for cancer expressing PDE3A or SLFN12” (The Broad Institute, Inc., priority 2015, dated 2021).
Further values from the same series stand in other lists.

Tested on: 766 cancer cell lines
Experiment: Large-scale cell-line viability measurements (766 cancer cell lines, 72 h, AUC)
Format: cell-based, human
Conditions: 72 hours
Experimental: Cell lines were treated for 72 hours with concentrations ranging from 66.4 μM-2 nM in 2-fold step dilutions.
To characterize cellular sensitivity to DNMDP further, 766 genomically characterized cancer cell lines were screened for DMNDP sensitivity at concentrations ranging from 66.4 μM to 2 nM in 2-fold dilution steps for 72 hours. From these cell lines, 22 cell lines were categorized as sensitive with a robust Z-score lower than −4, which represented multiple lineages including multiple melanoma cell lines, amongst others (Table 1).
The sensitivity of […] cancer cell lines (CCLs) was measured drawn from 23 different lineages to DNMDP. Each cell line was plated in its preferred media in white opaque 1536-plates at a density of 500 cells/well. After incubating overnight, DNMDP was added by acoustic transfer at 16 concentrations ranging from 66.4 μM-2 nM in 2-fold steps in duplicate (Labcyte Echo 555, Labcyte Inc., Sunnyvale, Calif.). After 72 hours treatment, cellular ATP levels were measured as a surrogate for viability (CELLTITERGLO®, Promega Corporation, Madison, Wis.) according to manufacturer's protocols using a ViewLux Microplate Imager (PerkinElmer, Waltham, Mass.) and normalized to background (media-only) and vehicle (DMSO)-treated control wells.
Concentration response curves were fit using nonlinear fits to 2- or 3-parameter sigmoid functions through all 16 concentrations with the low-concentration asymptote set to the DMSO-normalized value, and an optimal 8-point dose curve spanning the range of compound-sensitivity was identified. The area under the 8-point dose curve (AUC) was computed by numeric integration as a metric for sensitivity for further analysis. Similar sensitivity measurements have been obtained for a collection of 480 other compounds, enabling analyses that identify cell lines responding uniquely to DNMDP (see Broad Institute Cancer Therapeutics Response Portal, a dataset to identify comprehensively relationships between genetic and lineage features of human cancer cell lines and small-molecule sensitivities for complete list of compounds).

[1] = BECKER (CENTRAL NERVOUS SYSTEM)
[2] = BICR18 (UPPER AERODIGESTIVE TRACT)
[3] = BICR31 (UPPER AERODIGESTIVE TRACT)
[4] = BV173 (HAEMATOPOIETIC AND LYMPHOID TISSUE)
[5] = CA46 (HAEMATOPOIETIC AND LYMPHOID TISSUE)
[6] = CAL27 (UPPER AERODIGESTIVE TRACT)
[7] = CMLT1 (HAEMATOPOIETIC AND LYMPHOID TISSUE)
[8] = DBTRG05MG (CENTRAL NERVOUS SYSTEM)
[9] = EB1 (HAEMATOPOIETIC AND LYMPHOID TISSUE)
[10] = EHEB (HAEMATOPOIETIC AND LYMPHOID TISSUE)
[11] = EOL1 (HAEMATOPOIETIC AND LYMPHOID TISSUE)
[12] = F36P (HAEMATOPOIETIC AND LYMPHOID TISSUE)
[13] = GDM1 (HAEMATOPOIETIC AND LYMPHOID TISSUE)
[14] = HEL (HAEMATOPOIETIC AND LYMPHOID TISSUE)
[15] = HS611T (HAEMATOPOIETIC AND LYMPHOID TISSUE)
[16] = JJN3 (HAEMATOPOIETIC AND LYMPHOID TISSUE)
[17] = JURKAT (HAEMATOPOIETIC AND LYMPHOID TISSUE)
[18] = KARPAS299 (HAEMATOPOIETIC AND LYMPHOID TISSUE)
[19] = KASUMI2 (HAEMATOPOIETIC AND LYMPHOID TISSUE)
[20] = KHM1B (HAEMATOPOIETIC AND LYMPHOID TISSUE)

CCN(CC)c1ccc(C2=NNC(=O)CC2C)cc1[N+](=O)[O-] (stereo not shown) [DNMDP, 6-(4-(diethylamino)-3-nitrophenyl)-5-methyl-4,5-dihydropyridazin-3(2H)-one]
DNMDP AUC (A673 (BONE)): 6.2304
Robust Z-score (A673 (BONE)): −0.4243
DNMDP AUC (A2058 (SKIN)): 2.0833
Robust Z-score (A2058 (SKIN)): −4.777
DNMDP AUC (ASPC1 (PANCREAS)): 6.4186
Robust Z-score (ASPC1 (PANCREAS)): −0.2268
DNMDP AUC (BC3C (URINARY TRACT)): 6.266
Robust Z-score (BC3C (URINARY TRACT)): −0.387
DNMDP AUC (BCPAP (THYROID)): 5.2336
Robust Z-score (BCPAP (THYROID)): −1.471
DNMDP AUC [1]: 6.4161
Robust Z-score [1]: −0.2294
DNMDP AUC [2]: 5.6
Robust Z-score [2]: −1.086
DNMDP AUC [3]: 4.8356
Robust Z-score [3]: −1.888
DNMDP AUC [4]: 6.4448
Robust Z-score [4]: −0.1993
DNMDP AUC (BXPC3 (PANCREAS)): 6.2387
Robust Z-score (BXPC3 (PANCREAS)): −0.4156
DNMDP AUC [5]: 6.4772
Robust Z-score [5]: −0.1653
DNMDP AUC [6]: 6.3725
Robust Z-score [6]: −0.2752
DNMDP AUC (CAL51 (BREAST)): 4.0017
Robust Z-score (CAL51 (BREAST)): −2.764
DNMDP AUC (CAL78 (BONE)): 3.1711
Robust Z-score (CAL78 (BONE)): −3.636
DNMDP AUC (CAOV3 (OVARY)): 5.4646
Robust Z-score (CAOV3 (OVARY)): −1.228
DNMDP AUC (CAS1 (CENTRAL NERVOUS SYSTEM)): 3.9993
Robust Z-score (CAS1 (CENTRAL NERVOUS SYSTEM)): −2.766
DNMDP AUC (CCK81 (LARGE INTESTINE)): 6.4043
Robust Z-score (CCK81 (LARGE INTESTINE)): −0.2418
DNMDP AUC (CGTHW1 (THYROID)): 3.4296
Robust Z-score (CGTHW1 (THYROID)): −3.364
DNMDP AUC (CHAGOK1 (LUNG)): 6.5292
Robust Z-score (CHAGOK1 (LUNG)): −0.1107
DNMDP AUC (CHP212 (AUTONOMIC GANGLIA)): 6.5178
Robust Z-score (CHP212 (AUTONOMIC GANGLIA)): −0.1227
DNMDP AUC [7]: 6.3494
Robust Z-score [7]: −0.2994
DNMDP AUC (COLO678 (LARGE INTESTINE)): 5.0245
Robust Z-score (COLO678 (LARGE INTESTINE)): −1.69
DNMDP AUC (COLO741 (SKIN)): 2.7231
Robust Z-score (COLO741 (SKIN)): −4.106
DNMDP AUC (COLO829 (SKIN)): 5.2432
Robust Z-score (COLO829 (SKIN)): −1.461
DNMDP AUC (CORL105 (LUNG)): 5.5442
Robust Z-score (CORL105 (LUNG)): −1.145
DNMDP AUC (COV318 (OVARY)): 0.09584
Robust Z-score (COV318 (OVARY)): −6.863
DNMDP AUC (COV434 (OVARY)): 6.3341
Robust Z-score (COV434 (OVARY)): −0.3155
DNMDP AUC (COV644 (OVARY)): 5.5849
Robust Z-score (COV644 (OVARY)): −1.102
DNMDP AUC (CW2 (LARGE INTESTINE)): 6.4567
Robust Z-score (CW2 (LARGE INTESTINE)): −0.1868
DNMDP AUC [8]: 4.7415
Robust Z-score [8]: −1.987
DNMDP AUC (DM3 (PLEURA)): 5.2635
Robust Z-score (DM3 (PLEURA)): −1.439
DNMDP AUC [9]: 6.4633
Robust Z-score [9]: −0.1799
DNMDP AUC [10]: 6.5124
Robust Z-score [10]: −0.1283
DNMDP AUC [11]: 5.0478
Robust Z-score [11]: −1.666
DNMDP AUC [12]: 6.388
Robust Z-score [12]: −0.2589
DNMDP AUC (FTC238 (THYROID)): 6.2564
Robust Z-score (FTC238 (THYROID)): −0.397
DNMDP AUC (FU97 (STOMACH)): 6.4421
Robust Z-score (FU97 (STOMACH)): −0.2021
DNMDP AUC (G292CLONEA141B1 (BONE)): 1.9664
Robust Z-score (G292CLONEA141B1 (BONE)): −4.9
DNMDP AUC [13]: 6.4875
Robust Z-score [13]: −0.1545
DNMDP AUC (GMS10 (CENTRAL NERVOUS SYSTEM)): 6.4313
Robust Z-score (GMS10 (CENTRAL NERVOUS SYSTEM)): −0.2134
DNMDP AUC (GP2D (LARGE INTESTINE)): 6.2536
Robust Z-score (GP2D (LARGE INTESTINE)): −0.4
DNMDP AUC (HCC15 (LUNG)): 6.3861
Robust Z-score (HCC15 (LUNG)): −0.2609
DNMDP AUC (HCC38 (BREAST)): 6.3361
Robust Z-score (HCC38 (BREAST)): −0.3134
DNMDP AUC (HCC44 (LUNG)): 6.4794
Robust Z-score (HCC44 (LUNG)): −0.163
DNMDP AUC (HCC1143 (BREAST)): 6.3611
Robust Z-score (HCC1143 (BREAST)): −0.2871
DNMDP AUC (HCC4006 (LUNG)): 6.2335
Robust Z-score (HCC4006 (LUNG)): −0.4211
DNMDP AUC (HCT8 (LARGE INTESTINE)): 6.3733
Robust Z-score (HCT8 (LARGE INTESTINE)): −0.2743
DNMDP AUC (HCT15 (LARGE INTESTINE)): 6.4918
Robust Z-score (HCT15 (LARGE INTESTINE)): −0.1499
DNMDP AUC [14]: 0.5796
Robust Z-score [14]: −6.356
DNMDP AUC (HLF (LIVER)): 6.5042
Robust Z-score (HLF (LIVER)): −0.1369
DNMDP AUC (HMCB (SKIN)): 1.9762
Robust Z-score (HMCB (SKIN)): −4.89
DNMDP AUC (HOS (BONE)): 6.5069
Robust Z-score (HOS (BONE)): −0.1341
DNMDP AUC (HS294T (SKIN)): 6.5258
Robust Z-score (HS294T (SKIN)): −0.1143
DNMDP AUC (HS578T (BREAST)): 2.8012
Robust Z-score (HS578T (BREAST)): −4.024
DNMDP AUC [15]: 6.4224
Robust Z-score [15]: −0.2228
DNMDP AUC (HS729 (SOFT TISSUE)): 4.6518
Robust Z-score (HS729 (SOFT TISSUE)): −2.081
DNMDP AUC (HS766T (PANCREAS)): 6.3727
Robust Z-score (HS766T (PANCREAS)): −0.275
DNMDP AUC (HS839T (SKIN)): 5.5232
Robust Z-score (HS839T (SKIN)): −1.167
DNMDP AUC (HS852T (SKIN)): 4.7511
Robust Z-score (HS852T (SKIN)): −1.977
DNMDP AUC (HS936T (SKIN)): 6.385
Robust Z-score (HS936T (SKIN)): −0.262
DNMDP AUC (HS940T (SKIN)): 5.1573
Robust Z-score (HS940T (SKIN)): −1.551
DNMDP AUC (HT1197 (URINARY TRACT)): 3.0929
Robust Z-score (HT1197 (URINARY TRACT)): −3.718
DNMDP AUC (HUH28 (BILIARY TRACT)): 6.5145
Robust Z-score (HUH28 (BILIARY TRACT)): −0.1261
DNMDP AUC (IGR1 (SKIN)): 4.8613
Robust Z-score (IGR1 (SKIN)): −1.861
DNMDP AUC (IGR37 (SKIN)): 0.4115
Robust Z-score (IGR37 (SKIN)): −6.532
DNMDP AUC (IM95 (STOMACH)): 6.4877
Robust Z-score (IM95 (STOMACH)): −0.1542
DNMDP AUC (ISTMES1 (PLEURA)): 6.2389
Robust Z-score (ISTMES1 (PLEURA)): −0.4154
DNMDP AUC (J82 (URINARY TRACT)): 6.3718
Robust Z-score (J82 (URINARY TRACT)): −0.2759
DNMDP AUC (JHH5 (LIVER)): 6.4703
Robust Z-score (JHH5 (LIVER)): −0.1725
DNMDP AUC (JHOM1 (OVARY)): 2.7006
Robust Z-score (JHOM1 (OVARY)): −4.129
DNMDP AUC (JHOS2 (OVARY)): 4.8254
Robust Z-score (JHOS2 (OVARY)): −1.899
DNMDP AUC (JHUEM1 (ENDOMETRIUM)): 0.5347
Robust Z-score (JHUEM1 (ENDOMETRIUM)): −6.403
DNMDP AUC (JHUEM3 (ENDOMETRIUM)): 4.93
Robust Z-score (JHUEM3 (ENDOMETRIUM)): −1.789
DNMDP AUC (JIMT1 (BREAST)): 6.3087
Robust Z-score (JIMT1 (BREAST)): −0.3421
DNMDP AUC [16]: 6.4585
Robust Z-score [16]: −0.1849
DNMDP AUC (JMSU1 (URINARY TRACT)): 6.3317
Robust Z-score (JMSU1 (URINARY TRACT)): −0.318
DNMDP AUC [17]: 6.4524
Robust Z-score [17]: −0.1913
DNMDP AUC (K029AX (SKIN)): 2.9362
Robust Z-score (K029AX (SKIN)): −3.882
DNMDP AUC (KALS1 (CENTRAL NERVOUS SYSTEM)): 6.3098
Robust Z-score (KALS1 (CENTRAL NERVOUS SYSTEM)): −0.341
DNMDP AUC [18]: 6.4827
Robust Z-score [18]: −0.1595
DNMDP AUC [19]: 6.2904
Robust Z-score [19]: −0.3613
DNMDP AUC (KATOIII (STOMACH)): 6.3642
Robust Z-score (KATOIII (STOMACH)): −0.2839
DNMDP AUC [20]: 6.2859
Robust Z-score [20]: −0.3661
